About 5,000 (1.2%) of roughly 410,000 compounds were called active. This list was built around the results that the source calls inconclusive (neither active nor inactive); the mix of calls is not that of the screen. Calls follow the shape of the dose curve; as a rule, active = well fitted inhibition curve with a large enough effect; inconclusive = small, poorly fitted or top-dose-only effect; inactive = no such curve, though single readings can be large or run the other way. A potency beside an inconclusive call is a rough fit, not a confirmed value.
Assay: qHTS for Inhibitors of TGF-b; also: nearly all actives have a fitted effect of over 65% in size
Conditions: HepG2 CAGA-GFP TGF-b/SMAD3 reporter, GFP fluorescence, 18 h, TGF-beta stimulated, 500 pg/mL final; series mostly up to 46.1 µM
Outline: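 HEPG2 CAGA-GFP, 1000 cells/well; 2 h settle, 37 C; cpd via pin tool; TGF-b 500 pg/mL final; 18 h, 37 C; GFP imaging ex488/em500-530; %Activity normalised to -TGF-b and +DMSO controls; CRC fit, curve class.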
Potency is read from the fitted curve at half-maximal effect; tags tell the direction and shape of the fitted curve.

| SMILES | Potency |
| --- | --- |
| COc1cccc(CN(C)C(=O)/C=C/c2ccc(S(=O)(=O)N3CCCCCC3)cc2)c1 | inconclusive: 6.31 µM [inhibitor, single point] |
| O=C(/C=C/c1ccc(-c2ccccc2[N+](=O)[O-])o1)c1ccc(F)cc1 | inconclusive: 20 µM [inhibitor, partial curve, poor fit] |
| Cc1cc(C)c(/C=N/NC(=O)c2nnn(-c3nonc3N)c2COc2ccc(F)cc2)c(C)c1 | inconclusive: 20 µM [inhibitor, partial curve, poor fit] |
| N#CCCN(Cc1cccnc1)C(=S)NC(=O)c1ccco1 | inconclusive: 6.31 µM [inhibitor, single point] |
| Cc1ccc(S(=O)(=O)N2CCCc3cc(NC(=O)c4ccc(C(C)(C)C)cc4)ccc32)cc1 | inactive |
| O=C(c1ccc2c(=O)n3c(nc2c1)CCCCC3)N1CCN(C(c2ccccc2)c2ccccc2)CC1 | inconclusive: 35.5 µM [inhibitor, single point] |
| NC(=S)NN=C1c2cc(OCCN3CCOCC3)ccc2-c2ccc(OCCN3CCOCC3)cc21 | inconclusive: 11.2 µM [inhibitor, partial curve, poor fit] |
| CN(Cc1ccccc1)C(=O)CSc1nc2c(c(C(F)(F)F)n1)CCc1ccccc1-2 | inactive |
| C#Cc1cccc(C(=O)NC2CCCN(C3Cc4ccccc4C3)C2)c1 (centres undefined) | inconclusive: 2.51 µM [inhibitor, full curve] |
| O=C(c1cc2ccccc2cc1O)N1CCN(c2cccc(Cl)c2)CC1 | inconclusive: 35.5 µM [inhibitor, single point] |
| CCC(C)NC(=O)Cn1c(=O)n(-c2ccc(OC)cc2)c(=O)c2ccc(C(=O)NCc3ccc(C)cc3)cc21 (centres undefined) | inactive |
| Cc1cc(C)c2[nH]c(=S)cc(C)c2c1 | inactive |
| CCC(=O)N1CCc2cc(S(=O)(=O)CCC(=O)N(C)c3ccc(OC)cc3)ccc21 | inconclusive: 4.47 µM [inhibitor, single point] |
| CC1CCCN(CCC(=O)Nc2ccccc2)C1 (centres undefined) | inactive |
| Cc1ccc(NC(=O)C2C3CC4OC(=O)C2C4C3)cc1Cl (centres undefined) | inactive |
| COc1ccc(-c2cc(C(F)F)n3ncc(C(=O)N4CCc5ccccc5C4)c3n2)cc1 | inconclusive: 11.2 µM [inhibitor, partial curve] |
| CC(NCC(O)c1ccc([N+](=O)[O-])cc1)C12CC3CC(CC(C3)C1)C2 (centres undefined) | inactive |
| CCC(C)(c1ccc(C=O)s1)c1ccc(C=O)s1 | inconclusive: 35.5 µM [inhibitor, single point] |
| CCOC(=O)N1CCN(C(=O)c2cnn3c(C)c(Cc4ccc(C)cc4)c(C)nc23)CC1 | inconclusive: 2.51 µM [inhibitor, full curve] |
| COc1cc([C@H]2c3[nH]c4ccccc4c3C[C@H]3C(=O)N4[C@@H](c5cc(OC)c(OC)c(OC)c5)c5[nH]c6ccccc6c5C[C@H]4C(=O)N23)cc(OC)c1OC | inconclusive: 22.4 µM [inhibitor, partial curve, poor fit] |

| SMILES | Potency |
| --- | --- |
| COC(=O)c1c(NC(=O)CCCOc2ccccc2)sc2c1CCC(C)C2 (centres undefined) | inactive |
| Cc1cc(C)c(NC(=O)CN(C)S(=O)(=O)c2ccc3c(c2)n(C)c(=O)c(=O)n3C)c(C)c1 | inactive |
| CCOC(=O)[C@H]1[C@H]2COc3ccc(Cl)cc3[C@@H]2N2C(=O)c3ccc(F)cc3NC(=O)[C@@]12C | inconclusive: 10 µM [inhibitor, partial curve, poor fit] |
| N=c1c2c(-c3ccccc3)c(-c3ccccc3)oc2ncn1Cc1ccco1 | inconclusive: 35.5 µM [inhibitor, single point] |
| CN(C(=O)c1ccc(Cl)c([N+](=O)[O-])c1)C1(C)CCS(=O)(=O)C1 (centres undefined) | inconclusive: 0.447 µM [inhibitor, partial curve, poor fit] |
| COC(=O)c1[nH]c2ccccc2c1NC(=O)c1ccccc1[N+](=O)[O-] | inconclusive: 6.31 µM [inhibitor, single point] |
| Cc1ccccc1OCCn1cc(C=O)c2ccccc21 | inconclusive: 3.98 µM [inhibitor, full curve, poor fit] |
| O=C(NCCc1ccccc1)c1cc(-c2ccccc2)nc2n[nH]c(-c3ccccc3)c12 | inconclusive: 35.5 µM [inhibitor, single point] |
| Cn1c(Oc2cccnc2CN2CCCC2)nc2cc(-c3cccc(C(F)(F)F)c3)sc2c1=O | inconclusive: 22.4 µM [inhibitor, single point] |
| CN(C)c1ccc(/C=C(\C#N)c2nc3ccccc3c(=O)[nH]2)cc1 | inactive |
| Nc1nonc1-n1nnc(C(=O)N/N=C/c2cc(Br)cs2)c1-c1ccccc1 | inconclusive: 35.5 µM [inhibitor, single point] |
| CCOC(=O)C(Cc1ccc(O)cc1)NC(=O)CCc1c[nH]c2ccccc12 (centres undefined) | inconclusive: 35.5 µM [inhibitor, single point] |
| CC(C)[C@H]1COCCS(=O)(=O)N1Cc1ccccc1-c1ccc(C(C)(C)C)cc1 | inconclusive: 20 µM [inhibitor, partial curve, poor fit] |
| Cc1ccc(CN2CC(C(=O)Nc3ccc(F)c([N+](=O)[O-])c3)CC2=O)cc1 (centres undefined) | inconclusive: 35.5 µM [inhibitor, single point] |
| O=C(NCC1CCCCC1)c1cc2ccccc2cc1O | inconclusive: 20 µM [inhibitor, single point] |
| C=CCc1ccc(O)c(-c2cc(CC=C)ccc2O)c1 | inconclusive: 35.5 µM [inhibitor, single point] |
| CC1CN(C(=O)COC(=O)/C=C/c2cccc([N+](=O)[O-])c2)CC(C)O1 (centres undefined) | inconclusive: 35.5 µM [inhibitor, partial curve, poor fit] |
| O=C(c1ccc(CSc2nc3ccncc3n2Cc2ccccc2F)cc1)N1CCCCC1 | inconclusive: 35.5 µM [inhibitor, single point] |
| O=C(Nc1cc(S(=O)(=O)Nc2ccc(Cl)cc2)ccc1N1CCCCC1)c1ccc(F)cc1Cl | inconclusive: 35.5 µM [inhibitor, single point] |
